Values marked as one replicate rest on one cluster of the flow cell; about a third of the high ones do not repeat.
Tested on: ATP
Assay: switch fluorescence ratio, 500 uM ATP over buffer (Cy3 cluster intensity, sum of 5 cycles each) (fold (ratio)); higher = stronger signal-on switching upon ATP binding; sequences stand for … in TCGTCGGCAGCGTCAGATGTGTATAAGAGACAGTTTTTTTTTTTTTTTTTTTTTTTTT…TC
Details: aptamer strand: ATP DNA aptamer (quencher-CACCTGGGGGAGTATTGCGGAGGAAGG + anchor), 100 nM annealed; ATP concentration: 500 uM; one replicate
In short: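 Values give the fluorescence ratio for each switch-domain sequence, averaged from per-cluster ratios of summed target-cycle to summed buffer-cycle Cy3 intensity. The Cy3-labelled switching-strand clusters sat on a modified Illumina MiSeq flow-cell, were annealed to 100 nM quencher-labelled ATP aptamer, and were imaged in selection buffer, then after 15 min with 500 uM ATP at 22 °C. Five cycles ran with NaOH stripping and re-annealing between them, and clusters outside 100-1000 RFU were excluded.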
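Also: ATP exposure 15 min at 22 °C before imaging.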

| Sequence | switch fluorescence ratio |
| --- | --- |
| CAGTGGTGCG | 0.93 |
| CAGTGTAAAC | 0.996 |
| CAGTGTAAGG | 1 |
| CAGTGTAGTA | 1.01 |
| CAGTGTGGAG | 1.04 |
| CAGTGTTTGT | 0.986 |
| CAGTTACCAT | 1.04 |
| CAGTTACCTA | 1.07 |
| CAGTTCCGGG | 1.07 |
| CAGTTCGGAT | 0.96 |
| CAGTTTAAT | 1.01 |
| CAGTTTCATG | 0.996 |
| CAGTTTGGGA | 0.965 |
| CATAAATCAT | 1.01 |
| CATAAGGAGA | 1.03 |
| CATAATACGC | 1.08 |
| CATACAGAGG | 1.02 |
| CATACAGAGT | 1 |
| CATACAGCCT | 1.06 |
| CATACATTGC | 1.04 |
| CATACCAGGT | 1.52 |
| CATACGCAGA | 3.08 |
| CATACGGTCC | 1.06 |
| CATACGGTTC | 1.14 |
| CATACGTAAT | 6.65 |

| Sequence | switch fluorescence ratio |
| --- | --- |
| CATACTAATA | 1.01 |
| CATACTGCTA | 1.17 |
| CATACTTGTT | 1 |
| CATAGAAGGT | 1.01 |
| CATAGACGT | 1.04 |
| CATAGACTGG | 0.986 |
| CATAGAGTTA | 0.998 |
| CATAGATTAC | 1.06 |
| CATAGCGTGG | 0.998 |
| CATAGGCTGA | 0.99 |
| CATAGGGTAT | 0.951 |
| CATAGGTGCC | 1.13 |
| CATAGTAGC | 0.968 |
| CATATACTTG | 1.05 |
| CATATATAAC | 0.972 |
| CATATCAGTC | 1.04 |
| CATATCGAGA | 1.01 |
| CATATCGGCG | 1.03 |
| CATATGCGTT | 0.974 |
| CATATGGGAG | 0.986 |
| CATATGTAAC | 1.03 |
| CATATTACTA | 1.01 |
| CATATTCGCG | 0.983 |
| CATATTGAT | 1.05 |
| CATATTGATG | 0.963 |

| Sequence | switch fluorescence ratio |
| --- | --- |
| CATATTGTAC | 0.978 |
| CATATTTGGA | 0.995 |
| CATCAAATTT | 1.07 |
| CATCAAGCGA | 2.3 |
| CATCAATTCC | 1.1 |
| CATCAATTGG | 0.983 |
| CATCACTCAA | 1.15 |
| CATCAGCTAG | 1.28 |
| CATCAGGCGA | 1.47 |
| CATCAGGGAC | 1.67 |
| CATCAGTCGG | 1.04 |
| CATCAGTGGC | 1.06 |
| CATCATAGAG | 0.992 |
| CATCCAAGCT | 1.11 |
| CATCCATCGC | 1.26 |
| CATCCCGGGA | 1.26 |
| CATCCCGTCC | 1.27 |
| CATCCGGGGA | 1.82 |
| CATCCGTCAG | 3.52 |
| CATCCGTCCA | 3.6 |
| CATCCTCCTG | 1.3 |
| CATCGAACAC | 1.17 |
| CATCGCGAGA | 1.09 |
| CATCGCGCTG | 1.03 |
| CATCGGGCCA | 1.02 |

| Sequence | switch fluorescence ratio |
| --- | --- |
| CATCGGGTTG | 1.02 |
| CATCGTGCGG | 1.01 |
| CATCTAAAGT | 1.02 |
| CATCTAGCTT | 1.08 |
| CATCTCGTCG | 0.954 |
| CATCTGAAGC | 1.12 |
| CATCTGAGTT | 1 |
| CATCTGATTG | 1.02 |
| CATCTTAT | 0.978 |
| CATCTTCTGA | 1.02 |
| CATCTTTAAT | 1.02 |
| CATCTTTCTT | 1 |
| CATCTTTGCT | 1.01 |
| CATGAACACG | 0.976 |
| CATGAATAGG | 1.03 |
| CATGACCCTT | 1.03 |
| CATGACGG | 1.03 |
| CATGACGTCG | 0.982 |
| CATGATAAAG | 0.986 |
| CATGATGCT | 1.01 |
| CATGCACCTT | 1.13 |
| CATGCATG | 0.969 |
| CATGCGATCA | 1.01 |
| CATGCGGCAA | 3.55 |
| CATGCGTTAA | 1.06 |
